Legend:
Cdc42 = target: T1, Cdc42 (Homo sapiens, UniProt P60953); assay: G-trap assay validation, active Cdc42 in HeLa cells; assay type: cell-based; details: HeLa cells treated with CID2950007 (ML141)
T1 construct: endogenous in cells; host or cells: HeLa (ATCC)
Protocol: For each effector assay, 10,000 beads were added to 50 μg of protein in 100 μl of cell lysate in RIPA buffer. […] To minimize reporter antibody crosstalk, samples were split into separate fractions after lysate binding to the multiplex bead sets and then individually probed with a reporter antibody specific for a single target GTPase per fraction.
Cdc42, Rac1 and RhoA are among the most well characterized members of the Rho subfamily of GTPases. They are known for orchestrating cytoskeletal reorganization dynamics (filamentous actin and myosin 2) and crosstalk to antagonize each other's activities [25B; 26B; 27B; 28B]. The availability of specific regulators of their activity makes these GTPases a suitable platform to test the applicability of our G-trap assay. HeLa cells were treated with the following signaling regulators: 1) NSC23766, a specific inhibitor of Rac1 interaction with its two upstream GEFs Tiam1 and Trio (Trio is also identified as a RhoA target [29B: 30B]), 2) CID2950007, a novel Cdc42 specific inhibitor [6B] commercially sold as ML141, and 3) calpeptin, an upstream activator of RhoA [31B]. […] Readings were taken at 3 min and 20 min after stimulation. The data were corrected for nonspecific binding by subtracting the fluorescent antibody binding to the GST-conjugated control beads from the antibody binding to GST-effector bearing beads. […]

Rap1 = assay type: cell-based, monkey
RhoA = assay type: cell-based, monkey

T1 sequence (P60953 whole entry): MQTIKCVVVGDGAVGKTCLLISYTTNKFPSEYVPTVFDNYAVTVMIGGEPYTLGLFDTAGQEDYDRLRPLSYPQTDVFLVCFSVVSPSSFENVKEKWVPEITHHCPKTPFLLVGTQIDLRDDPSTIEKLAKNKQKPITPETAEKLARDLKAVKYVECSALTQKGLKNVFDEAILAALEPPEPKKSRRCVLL

SMILES: CCCC[C@@H](C=O)NC(=O)[C@H](CC(C)C)NC(=O)OCc1ccccc1 [calpeptin]
- actin stress fiber formation (Vero E6 cells): RhoA induced F-actin stress fibers formed

SMILES: COc1ccc(C2CC(c3ccccc3)=NN2c2ccc(S(N)(=O)=O)cc2)cc1 (stereo not shown) [CID2950007]
- Cdc42 activity (Cdc42): total inhibition of Cdc42

SMILES: CC1CNc2c(cccc2S(=O)(=O)N[C@@H](CCCNC(=N)N)C(=O)N2CC[C@@H](C)C[C@@H]2C(=O)O)C1 (stereo partly shown) [argatroban]
- Rap1 activation in argatroban-treated plasma samples (Rap1): refractory
- RhoA GTP activation in argatroban-treated plasma samples (RhoA): RhoA GTP activation was primarily due to thrombin

— US10962541B2 (priority 2014, dated 2021)
